# The campaign covered roughly 350,000 compounds. About 31,000 (8.9%) were called active. The shares of active, inactive and inconclusive entries below differ from those in the screen. The call rests on the fitted dose curve; in most records, active means well fitted inhibition curve with a large enough effect; inconclusive means small, poorly fitted or top-dose-only effect; inactive means no such curve, though single readings can be large or run the other way. Where the call is inconclusive, the potency comes from a doubtful curve fit.
# Molecular target: Histone-lysine N-methyltransferase EHMT2 (Homo sapiens) (UniProt Q96KQ7)
# Experiment: qHTS Assay for Inhibitors of Histone Lysine Methyltransferase G9a; further: nearly all actives have a fitted effect of over 75% in size
# Conditions: G9a H3K9 monomethylation, AlphaScreen, 2 h; activity, negative = inhibition: at 59 µM (top of the series) unless noted
# In short: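 Enzyme 20 nM + cpd, 15 min RT; add b-H3K9 pep 500 nM / SAM 20 uM; 2 h RT; anti-H3K9me1 Ab 0.5 ug/mL + SA donor / anti-rabbit acceptor beads 20 ug/mL each, 10 min; AlphaScreen read.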
# On the % scale 0 is the no-effect control and ±100 the full control effect; potency means the concentration at half of the fitted maximal effect; tags describe the fitted curve by direction and shape.
# UniProt Q96KQ7, sequence (Q96KQ7 whole entry, looked up): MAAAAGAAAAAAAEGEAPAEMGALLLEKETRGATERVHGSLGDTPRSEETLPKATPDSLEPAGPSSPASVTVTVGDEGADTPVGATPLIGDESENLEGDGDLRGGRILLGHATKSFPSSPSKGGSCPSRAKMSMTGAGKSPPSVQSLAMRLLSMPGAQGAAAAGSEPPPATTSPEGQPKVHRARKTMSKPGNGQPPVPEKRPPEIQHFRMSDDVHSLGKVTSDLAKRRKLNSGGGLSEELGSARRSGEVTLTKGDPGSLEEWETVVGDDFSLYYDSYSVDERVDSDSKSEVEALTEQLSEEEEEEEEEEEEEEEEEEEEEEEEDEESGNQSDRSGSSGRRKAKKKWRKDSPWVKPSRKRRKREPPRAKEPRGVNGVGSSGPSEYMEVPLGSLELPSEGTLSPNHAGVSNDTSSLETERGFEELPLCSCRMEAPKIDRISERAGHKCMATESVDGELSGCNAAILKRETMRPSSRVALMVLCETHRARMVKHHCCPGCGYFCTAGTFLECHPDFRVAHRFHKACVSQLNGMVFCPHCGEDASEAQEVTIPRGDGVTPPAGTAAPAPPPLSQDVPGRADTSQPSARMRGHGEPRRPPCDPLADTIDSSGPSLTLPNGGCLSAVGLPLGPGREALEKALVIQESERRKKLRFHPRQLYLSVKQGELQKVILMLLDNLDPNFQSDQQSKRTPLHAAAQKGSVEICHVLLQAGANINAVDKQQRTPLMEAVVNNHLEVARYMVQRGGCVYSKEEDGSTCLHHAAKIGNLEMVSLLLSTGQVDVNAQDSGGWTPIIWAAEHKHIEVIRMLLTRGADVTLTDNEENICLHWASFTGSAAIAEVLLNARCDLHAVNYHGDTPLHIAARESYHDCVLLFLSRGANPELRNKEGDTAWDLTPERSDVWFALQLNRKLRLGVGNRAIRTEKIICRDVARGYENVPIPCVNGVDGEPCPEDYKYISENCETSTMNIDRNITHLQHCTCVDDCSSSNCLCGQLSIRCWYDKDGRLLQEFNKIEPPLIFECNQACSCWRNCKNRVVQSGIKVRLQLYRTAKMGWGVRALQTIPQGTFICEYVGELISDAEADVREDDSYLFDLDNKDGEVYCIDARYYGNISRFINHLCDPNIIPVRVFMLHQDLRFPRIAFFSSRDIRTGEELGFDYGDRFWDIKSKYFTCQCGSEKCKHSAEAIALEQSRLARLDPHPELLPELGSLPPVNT
Structure (SMILES),Potency,"activity, negative = inhibition"
CS(=O)(=O)N1CCN(c2ccc([N+](=O)[O-])cc2F)CC1,"inconclusive: 35.5 µM [inhibitor, partial curve, poor fit]",
Cc1ccc(CO/N=C\Cc2snc(Sc3ncc(C(F)(F)F)cc3Cl)c2C#N)cc1,active: 11.2 µM,
COc1ccc(Nc2nnc(SCc3cc([N+](=O)[O-])cc4c3OCOC4)s2)cc1,"inconclusive: 2.51 µM [inhibitor, partial curve, poor fit]",
CCC(C)(C)n1nnnc1C(c1ccccn1)N1CCOCC1 (centres undefined),"inconclusive: 79.4 µM [inhibitor, single point]",
CSc1ccc(C2c3c(oc4cc(C)cc(C)c4c3=O)C(=O)N2Cc2ccco2)cc1 (centres undefined),"inconclusive: 4.47 µM [inhibitor, single point]",
Cc1cccc(NC2=C(Cl)C(=O)OC2OC(=O)c2ccco2)c1 (centres undefined),"inconclusive: 89.1 µM [inhibitor, partial curve, poor fit]",
CN=c1scc(C)n1/N=C/c1ccc2c(c1)OCO2,,inconclusive: -91.2% [inhibitor]
COCCn1c(C)cc(C(=O)COC(=O)c2cncc(Br)c2)c1C,"inconclusive: 89.1 µM [inhibitor, single point]",
O=C(c1cccn(Cc2ccc(C(F)(F)F)cc2)c1=O)N1CCOCC1,,inactive: 21.8% [at 102 µM]
O=C(COC(=O)c1ccc(Cl)cc1O)Nc1cccnc1Cl,active: 50.1 µM,
COc1ccc(C(=O)COC(=O)C(Cc2c[nH]c3ccccc23)NC(=O)c2ccc(C(C)(C)C)cc2)cc1 (centres undefined),,inactive: -54.2%
Cc1cnc(SCCc2ccncc2)nc1C,active: 8.91 µM,
CCOC(=O)c1c(C)[nH]c(C)c1S(=O)(=O)N1CCN(c2cccc(C(F)(F)F)c2)CC1,"inconclusive: 28.2 µM [inhibitor, partial curve, poor fit]",
COc1ccc(CNC(=O)C2CCCN(c3nc4ccccc4o3)C2)c(OC)c1 (centres undefined),"inconclusive: 79.4 µM [inhibitor, single point]",
CN(C)C=Nc1nc2ccccc2nc1N1CCCC1,active: 44.7 µM,
O=C(CNC(=O)c1ccc(Cl)c([N+](=O)[O-])c1)OC1CCCCC1=O (centres undefined),"inconclusive: 39.8 µM [inhibitor, partial curve, poor fit]",
COc1ccc(OC)c(C2C(C(C)=O)=C(O)C(=O)N2CCC(=O)O)c1 (centres undefined),,inconclusive: -84.8% [inhibitor]
CNC(=S)NNc1nc(N2CCOCC2)nc(N2CCOCC2)n1,"inconclusive: 1.58 µM [inhibitor, partial curve, poor fit]",
CN(C(=O)CSc1nnc2ccccn12)c1c(N)n(Cc2ccccc2)c(=O)[nH]c1=O,active: 35.5 µM,
O=C(Nc1ccc(F)cc1)N1CCN(c2ncccn2)CC1,,inactive: 4.36% [at 102 µM]
CCOC(=O)c1c(C)oc2c1C(=O)c1ccccc1C2=O,active: 12.6 µM,
COc1cc2c(cc1NC(=S)Nc1cccc3ccccc13)oc1ccccc12,"inconclusive: 2.24 µM [inhibitor, partial curve, poor fit]",

Structure (SMILES),Potency,"activity, negative = inhibition"
c1ccc2c(c1)OCC(c1nnc3sc(-c4ccc5c(c4)OCO5)nn13)O2 (centres undefined),active: 5.01 µM,
CCOc1ccc(CN(C)C(=O)CNC(=O)c2ccc(Br)o2)cc1OC,"inconclusive: 35.5 µM [inhibitor, single point]",
Cc1cc(C)c(S(=O)(=O)Nc2ccc(O)c(Sc3ncn[nH]3)c2)c(C)c1,"inconclusive: 10 µM [inhibitor, partial curve, poor fit]",
Cc1noc(NS(=O)(=O)c2ccc(NC(=O)CSc3nnc(-c4ccccc4)n3C3CCCCC3)cc2)c1C,"inconclusive: 8.91 µM [inhibitor, single point]",
O=C(Cc1cccs1)OCC(=O)c1ccco1,active: 50.1 µM,
CCN1CCN(CCNC(=O)c2ccc3c(c2)N(Cc2ccc(F)cc2)C(=O)/C(=C/c2ccccc2)S3)CC1,"inconclusive: 39.8 µM [inhibitor, partial curve, poor fit]",
Cc1cc[n+](CC[n+]2ccc(C)cc2)cc1,,inactive: 14.9% [at 12.7 µM]
CCCCn1nnc(NC(=O)c2ccc(-c3ccccc3[N+](=O)[O-])o2)n1,"inconclusive: 79.4 µM [inhibitor, partial curve, poor fit]",
N#CC(C#N)C(c1ccsc1)c1c(-c2ccccc2)[nH][nH]c1=O (centres undefined),,inactive: 1.23% [at 12.7 µM]
CCN(CC(=O)Nc1ccccc1OC)CC(=O)Nc1sccc1C#N,,inactive: -2.6% [at 102 µM]
O=C(Nc1ccncc1)c1cn(-c2ccccc2)nc1-c1cccs1,"inconclusive: 89.1 µM [inhibitor, partial curve, poor fit]",
CN1C(=O)NC(c2ccccc2)C2=C1CN(CCc1ccccc1)C2=O (centres undefined),"inconclusive: 89.1 µM [inhibitor, partial curve, poor fit]",
CCOc1ccc(OCCN2CCCCC2)cc1,active: 7.94 µM,
CCn1cc(C(=O)NCCCN2CCCC(C)C2)c(=O)c2cc(S(=O)(=O)N3CCc4ccccc4C3)ccc21 (centres undefined),"inconclusive: 89.1 µM [inhibitor, partial curve, poor fit]",
CCOC(=O)c1ccc(CNC(=O)c2n[nH]c(=O)c3ccccc23)o1,"inconclusive: 0.355 µM [inhibitor, full curve, poor fit]",
Cc1cc2oc(=O)cc(C)c2c2occ(-c3ccc(Cl)cc3)c12,,inactive: 9.68%
Cc1cccn2c(=O)c(C=O)c(Sc3ncccn3)nc12,active: 39.8 µM,
CCN1/C(=C/C=C/C=C/C=C/c2sc3ccccc3[n+]2CC)Sc2ccccc21,active: 22.4 µM,
CCN(C1CCS(=O)(=O)C1)S(=O)(=O)c1ccc(OC)c(OC)c1 (centres undefined),,inactive: 8.22% [at 0.501 µM]
Cc1ccc(/C=N/NC(=O)c2ccccc2OCc2ccc(F)cc2)o1,"inconclusive: 50.1 µM [inhibitor, partial curve, poor fit]",
C=CCNC(=S)N/N=C/c1ccc(-c2ccc(Br)cc2)o1,"inconclusive: 31.6 µM [inhibitor, single point]",
CCc1ccc(S(=O)(=O)c2cn(Cc3ccccc3)c3cc(F)c(F)cc3c2=O)cc1,"inconclusive: 10 µM [inhibitor, partial curve, poor fit]",
